Results: the supplement of paper PMC6206098
± gives the uncertainty stated by the source. Shown are siRNA guide strands that differ only in the seed, positions 2 to 7.

Assays:
HeyA8 = experiment: cell viability relative to lipid-only control; higher = less toxic; conditions: concentration: 10 nM; 96 h; Homo sapiens
H460 = experiment: as above; conditions: concentration: 10 nM; 96 h; Homo sapiens
M565 = experiment: as above; conditions: concentration: 10 nM; 96 h; Mus musculus
3LL = experiment: cell viability relative to siNT1 control; HeyA8 human ovarian and H460 human lung cancer; M565 mouse liver and 3LL mouse lung cancer; siNT1 is a non-toxic control siRNA; higher = less toxic; conditions: concentration: 10 nM; 96 h; Mus musculus
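For cell viability relative to lipid-only control in this document: reverse lipid transfection in 384-well plates, in triplicate, of duplexes on a non-toxic 19mer backbone with passenger strand 2′-O-methylated at positions 1 and 2, luminescence viability read-out.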
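For cell viability relative to siNT1 control in this document: Luminescence-based viability of cells reverse transfected in 384-well plates with lipid-complexed siRNAs built on a non-toxic 19mer backbone whose passenger strand carries 2′-O-methyl groups at positions 1 and 2, triplicates.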

## UUCUUGGACAUGUAAACCAAA
HeyA8
  cell viability: 50.5 ± 3.6%
H460
  cell viability: 35.4 ± 4.2%
M565
  cell viability: 35.7 ± 3.9%
3LL
  cell viability: 35.8 ± 1.8%

## UUCUUGUACAUGUAAACCAAA
HeyA8
  cell viability: 60 ± 12%
H460
  cell viability: 66.9 ± 14%
M565
  cell viability: 83.7 ± 13%
3LL
  cell viability: 25.9 ± 7.8%

## UUCUUUAACAUGUAAACCAAA
HeyA8
  cell viability: 99 ± 15%
H460
  cell viability: 110 ± 11%
M565
  cell viability: 112 ± 8.2%
3LL
  cell viability: 118 ± 10%

## UUCUUUCACAUGUAAACCAAA
HeyA8
  cell viability: 48.5 ± 14%
H460
  cell viability: 53.7 ± 3.4%
M565
  cell viability: 105 ± 26%
3LL
  cell viability: 63.1 ± 6.9%

## UUCUUUGACAUGUAAACCAAA
HeyA8
  cell viability: 91.4 ± 5%
H460
  cell viability: 87.9 ± 6.1%
M565
  cell viability: 83.4 ± 6.7%
3LL
  cell viability: 91.3 ± 9%

## UUCUUUUACAUGUAAACCAAA
HeyA8
  cell viability: 92.4 ± 7.5%
H460
  cell viability: 69.5 ± 4.5%
M565
  cell viability: 115 ± 3.5%
3LL
  cell viability: 104 ± 10%

## UUGAAAAACAUGUAAACCAAA
HeyA8
  cell viability: 91.9 ± 9.1%
H460
  cell viability: 69.6 ± 14%
M565
  cell viability: 84.8 ± 9.6%
3LL
  cell viability: 94.9 ± 7.6%

## UUGAAACACAUGUAAACCAAA
HeyA8
  cell viability: 67.7 ± 4.2%
H460
  cell viability: 65.5 ± 0.97%
M565
  cell viability: 54.5 ± 9.6%
3LL
  cell viability: 39 ± 8.4%

## UUGAAAGACAUGUAAACCAAA
HeyA8
  cell viability: 86 ± 8.3%
H460
  cell viability: 68.9 ± 7.6%
M565
  cell viability: 85.4 ± 22%
3LL
  cell viability: 93.9 ± 7.2%

## UUGAAAUACAUGUAAACCAAA
HeyA8
  cell viability: 81 ± 6.6%
H460
  cell viability: 56.3 ± 3.4%
M565
  cell viability: 92.6 ± 8.9%
3LL
  cell viability: 26.9 ± 4.1%

## UUGAACAACAUGUAAACCAAA
HeyA8
  cell viability: 96.6 ± 9.9%
H460
  cell viability: 74.7 ± 11%
M565
  cell viability: 90.1 ± 5.8%
3LL
  cell viability: 79.7 ± 12%

## UUGAACCACAUGUAAACCAAA
HeyA8
  cell viability: 81 ± 6.2%
H460
  cell viability: 71 ± 16%
M565
  cell viability: 61.2 ± 10%
3LL
  cell viability: 54 ± 8.8%

## UUGAACGACAUGUAAACCAAA
HeyA8
  cell viability: 97 ± 6.7%
H460
  cell viability: 75.5 ± 8.9%
M565
  cell viability: 59.4 ± 3.4%
3LL
  cell viability: 23.4 ± 6.2%

## UUGAACUACAUGUAAACCAAA
HeyA8
  cell viability: 60.2 ± 6%
H460
  cell viability: 61.1 ± 5.9%
M565
  cell viability: 44.5 ± 4.1%
3LL
  cell viability: 38.7 ± 3.4%

## UUGAAGAACAUGUAAACCAAA
HeyA8
  cell viability: 91.7 ± 7%
H460
  cell viability: 116 ± 26%
M565
  cell viability: 67.3 ± 8%
3LL
  cell viability: 90.6 ± 5.5%

## UUGAAGCACAUGUAAACCAAA
HeyA8
  cell viability: 36.9 ± 3.1%
H460
  cell viability: 33.3 ± 2.9%
M565
  cell viability: 22.6 ± 3.7%
3LL
  cell viability: 5.72 ± 3.2%

## UUGAAGGACAUGUAAACCAAA
HeyA8
  cell viability: 70.8 ± 10%
H460
  cell viability: 70.3 ± 7.7%
M565
  cell viability: 57.2 ± 5.5%
3LL
  cell viability: 30 ± 5.6%

## UUGAAGUACAUGUAAACCAAA
HeyA8
  cell viability: 50.7 ± 4.3%
H460
  cell viability: 42.2 ± 12%
M565
  cell viability: 52.3 ± 10%
3LL
  cell viability: 34 ± 11%

## UUGAAUAACAUGUAAACCAAA
HeyA8
  cell viability: 93.4 ± 2.5%
H460
  cell viability: 78.5 ± 3%
M565
  cell viability: 96.7 ± 11%
3LL
  cell viability: 95.5 ± 5.7%

## UUGAAUCACAUGUAAACCAAA
HeyA8
  cell viability: 55.8 ± 5.3%
H460
  cell viability: 54.6 ± 8%
M565
  cell viability: 27.9 ± 4.9%
3LL
  cell viability: 19.7 ± 1.4%

## UUGAAUGACAUGUAAACCAAA
HeyA8
  cell viability: 91.4 ± 9.4%
H460
  cell viability: 99.6 ± 9.2%
M565
  cell viability: 77.8 ± 18%
3LL
  cell viability: 91.3 ± 11%

## UUGAAUUACAUGUAAACCAAA
HeyA8
  cell viability: 83.8 ± 5.4%
H460
  cell viability: 78.2 ± 8.4%
M565
  cell viability: 78.3 ± 8.9%
3LL
  cell viability: 45.7 ± 3.5%

## UUGACAAACAUGUAAACCAAA
HeyA8
  cell viability: 102 ± 12%
H460
  cell viability: 90.46 ± 0.55%
M565
  cell viability: 90.3 ± 16%
3LL
  cell viability: 83.8 ± 9.2%

## UUGACACACAUGUAAACCAAA
HeyA8
  cell viability: 76.1 ± 8%
H460
  cell viability: 63.9 ± 4.3%
M565
  cell viability: 39.8 ± 13%
3LL
  cell viability: 47.8 ± 2.7%

## UUGACAGACAUGUAAACCAAA
HeyA8
  cell viability: 90.2 ± 12%
H460
  cell viability: 59.3 ± 3.9%
M565
  cell viability: 44 ± 4.7%
3LL
  cell viability: 54.8 ± 6%

## UUGACAUACAUGUAAACCAAA
HeyA8
  cell viability: 93.2 ± 7.3%
H460
  cell viability: 66.1 ± 8.8%
M565
  cell viability: 65.6 ± 7.8%
3LL
  cell viability: 77.4 ± 6.5%

## UUGACCAACAUGUAAACCAAA
HeyA8
  cell viability: 76.4 ± 4.5%
H460
  cell viability: 58.2 ± 5.7%
M565
  cell viability: 38.6 ± 7.6%
3LL
  cell viability: 67.6 ± 9%

## UUGACCCACAUGUAAACCAAA
HeyA8
  cell viability: 59.1 ± 7.2%
H460
  cell viability: 44.7 ± 3.7%
M565
  cell viability: 18.8 ± 1.8%
3LL
  cell viability: 15.9 ± 1.3%

## UUGACCGACAUGUAAACCAAA
HeyA8
  cell viability: 71.9 ± 8.3%
H460
  cell viability: 65.2 ± 9.5%
M565
  cell viability: 47.2 ± 8.9%
3LL
  cell viability: 61.5 ± 6.6%

## UUGACCUACAUGUAAACCAAA
HeyA8
  cell viability: 29.1 ± 1.8%
H460
  cell viability: 54.3 ± 7.7%
M565
  cell viability: 38.5 ± 1.5%
3LL
  cell viability: 16.3 ± 3.6%

## UUGACGAACAUGUAAACCAAA
HeyA8
  cell viability: 93 ± 12%
H460
  cell viability: 85.9 ± 1.4%
M565
  cell viability: 62.4 ± 6.9%
3LL
  cell viability: 97.9 ± 17%

## UUGACGCACAUGUAAACCAAA
HeyA8
  cell viability: 93.2 ± 8%
H460
  cell viability: 66.5 ± 6%
M565
  cell viability: 72.9 ± 12%
3LL
  cell viability: 64.7 ± 2.4%

## UUGACGGACAUGUAAACCAAA
HeyA8
  cell viability: 78 ± 3.5%
H460
  cell viability: 47.8 ± 5.4%
M565
  cell viability: 43.1 ± 5.5%
3LL
  cell viability: 50.6 ± 3.4%

## UUGACGUACAUGUAAACCAAA
HeyA8
  cell viability: 88.7 ± 6.9%
H460
  cell viability: 77.6 ± 9.3%
M565
  cell viability: 53.5 ± 4.7%
3LL
  cell viability: 75.1 ± 7%

## UUGACUAACAUGUAAACCAAA
HeyA8
  cell viability: 95.9 ± 6.7%
H460
  cell viability: 71.9 ± 20%
M565
  cell viability: 88.5 ± 11%
3LL
  cell viability: 95 ± 14%

## UUGACUCACAUGUAAACCAAA
HeyA8
  cell viability: 71 ± 2.8%
H460
  cell viability: 63.1 ± 16%
M565
  cell viability: 81.8 ± 5.2%
3LL
  cell viability: 62.8 ± 1.1%

## UUGACUGACAUGUAAACCAAA
HeyA8
  cell viability: 95.7 ± 6.1%
H460
  cell viability: 86.5 ± 11%
M565
  cell viability: 100 ± 3.8%
3LL
  cell viability: 83.4 ± 5.4%

## UUGACUUACAUGUAAACCAAA
HeyA8
  cell viability: 96.3 ± 6.9%
H460
  cell viability: 67.9 ± 11%
M565
  cell viability: 83.8 ± 17%
3LL
  cell viability: 94.1 ± 3.6%

## UUGAGAAACAUGUAAACCAAA
HeyA8
  cell viability: 85.4 ± 10%
H460
  cell viability: 65.1 ± 6.1%
M565
  cell viability: 88.3 ± 14%
3LL
  cell viability: 85.8 ± 7.3%

## UUGAGACACAUGUAAACCAAA
HeyA8
  cell viability: 51.3 ± 1.7%
H460
  cell viability: 33.5 ± 3.7%
M565
  cell viability: 23.6 ± 5.4%
3LL
  cell viability: 34.3 ± 8.4%

## UUGAGAGACAUGUAAACCAAA
HeyA8
  cell viability: 99.2 ± 7.2%
H460
  cell viability: 92.4 ± 14%
M565
  cell viability: 33.5 ± 6.9%
3LL
  cell viability: 85.2 ± 6.9%

## UUGAGAUACAUGUAAACCAAA
HeyA8
  cell viability: 69.6 ± 1.6%
H460
  cell viability: 71.2 ± 4.1%
M565
  cell viability: 15.1 ± 0.48%
3LL
  cell viability: 38.6 ± 4%

## UUGAGCAACAUGUAAACCAAA
HeyA8
  cell viability: 92.6 ± 10%
H460
  cell viability: 67 ± 3.4%
M565
  cell viability: 44.5 ± 6.7%
3LL
  cell viability: 76.4 ± 1.5%

## UUGAGCCACAUGUAAACCAAA
HeyA8
  cell viability: 71.9 ± 2%
H460
  cell viability: 54.6 ± 6.9%
M565
  cell viability: 23.7 ± 6%
3LL
  cell viability: 16.6 ± 3.3%

## UUGAGCGACAUGUAAACCAAA
HeyA8
  cell viability: 92.5 ± 7.3%
H460
  cell viability: 74.6 ± 3.8%
M565
  cell viability: 68.5 ± 5.3%
3LL
  cell viability: 88.6 ± 2.6%

## UUGAGCUACAUGUAAACCAAA
HeyA8
  cell viability: 69.5 ± 6.9%
H460
  cell viability: 34.6 ± 2.1%
M565
  cell viability: 11.9 ± 4.3%
3LL
  cell viability: 5.56 ± 2.1%

## UUGAGGAACAUGUAAACCAAA
HeyA8
  cell viability: 65.9 ± 1.8%
H460
  cell viability: 60.5 ± 12%
M565
  cell viability: 14.5 ± 4.2%
3LL
  cell viability: 74.3 ± 5.1%

## UUGAGGCACAUGUAAACCAAA
HeyA8
  cell viability: 20 ± 2.3%
H460
  cell viability: 30.9 ± 1.2%
M565
  cell viability: 10.6 ± 2.5%
3LL
  cell viability: 1.95 ± 0.2%
